Data published in the supplement of paper PMC9588766.
Structures can show the parent of a compound that is named as a salt. In all, about 1,900 compounds were measured (“cell viability of compound + 1 nM pemigatinib relative to pemigatinib-only (DMSO) wells”: median about 0.95, lowest 2% from about 0.22 on). The list shows a part of the results.

What follows are compounds tested on PDC-DUC18828 (assay: cell viability of compound + 1 nM pemigatinib relative to pemigatinib-only (DMSO) wells (fraction); PDC-DUC18828 is a patient-derived cholangiocarcinoma cell line; higher = less growth inhibition). Details: first compound 1 µM; pemigatinib concentration 1 nM; 72 h.
Procedure: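 Selleck Bioactive library screen in the patient-derived FGFR2 fusion-positive ICC cell line PDC-DUC18828 (500 cells/well). Each compound was tested at 1 uM with 1 nM pemigatinib, in triplicate, for 72 h. Viability was read by CellTiter-Glo and normalised to plate DMSO controls. Value is the paper's averaged normalised viability.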

Compound	cell viability
O=C(Nc1ccc(OC(F)(F)F)cc1)c1sccc1NCc1ccnc2ccccc12 + CCN1C(=O)N(c2c(F)c(OC)cc(OC)c2F)Cc2cnc3[nH]c(CN4CCOCC4)cc3c21 [pemigatinib]	0.964
CC(=O)Nc1cccc2c1c(Sc1ccc(Cl)cc1)c(C)n2CC(=O)O + CCN1C(=O)N(c2c(F)c(OC)cc(OC)c2F)Cc2cnc3[nH]c(CN4CCOCC4)cc3c21 [pemigatinib]	1.08
CCCNC(C)C(=O)Nc1ccccc1C (configuration not stated) [Prilocaine] + CCN1C(=O)N(c2c(F)c(OC)cc(OC)c2F)Cc2cnc3[nH]c(CN4CCOCC4)cc3c21 [pemigatinib]	0.993
Nc1ncn([C@@H]2O[C@H](CO)[C@@H](O)[C@H]2O)c(=O)n1 [Azacitidine] + CCN1C(=O)N(c2c(F)c(OC)cc(OC)c2F)Cc2cnc3[nH]c(CN4CCOCC4)cc3c21 [pemigatinib]	0.9
CC(COc1ccccc1)N(CCCl)Cc1ccccc1 (configuration not stated) [Phenoxybenzamine HCl] + CCN1C(=O)N(c2c(F)c(OC)cc(OC)c2F)Cc2cnc3[nH]c(CN4CCOCC4)cc3c21 [pemigatinib]	0.951
COC1=C(OC)C(=O)C(CCCCCCCCCCO)=C(C)C1=O [Idebenone] + CCN1C(=O)N(c2c(F)c(OC)cc(OC)c2F)Cc2cnc3[nH]c(CN4CCOCC4)cc3c21 [pemigatinib]	1.02
CCOC(=O)[C@H](CCc1ccccc1)N[C@H]1CCc2ccccc2N(CC(=O)O)C1=O [Benazepril HCl] + CCN1C(=O)N(c2c(F)c(OC)cc(OC)c2F)Cc2cnc3[nH]c(CN4CCOCC4)cc3c21 [pemigatinib]	1.07
Cn1cc(-c2ccc(F)c(C(F)(F)F)c2)nc1C1CCN(c2ncnc3[nH]ncc23)CC1 + CCN1C(=O)N(c2c(F)c(OC)cc(OC)c2F)Cc2cnc3[nH]c(CN4CCOCC4)cc3c21 [pemigatinib]	0.923
O=C(Nc1c[nH]nc1-c1nc2ccc(CN3CCOCC3)cc2[nH]1)NC1CC1 + CCN1C(=O)N(c2c(F)c(OC)cc(OC)c2F)Cc2cnc3[nH]c(CN4CCOCC4)cc3c21 [pemigatinib]	0.552
O=C(Nc1cccc2c(=O)cc(-c3nnn[nH]3)oc12)c1ccc(OCCCCc2ccccc2)cc1 [Pranlukast] + CCN1C(=O)N(c2c(F)c(OC)cc(OC)c2F)Cc2cnc3[nH]c(CN4CCOCC4)cc3c21 [pemigatinib]	0.977
Cc1ccc(C(=O)Nc2ccc(CN3CCN(C)CC3)c(C(F)(F)F)c2)cc1C#Cc1cnc2cccnn12 + CCN1C(=O)N(c2c(F)c(OC)cc(OC)c2F)Cc2cnc3[nH]c(CN4CCOCC4)cc3c21 [pemigatinib]	0.258
CC(C)(C)NC[C@H](O)COc1nsnc1N1CCOCC1 [Timolol Maleate] + CCN1C(=O)N(c2c(F)c(OC)cc(OC)c2F)Cc2cnc3[nH]c(CN4CCOCC4)cc3c21 [pemigatinib]	0.997
O=C(c1cccc(Cl)c1F)N1CCN(Cc2cccc(Nc3nccs3)n2)CC1 + CCN1C(=O)N(c2c(F)c(OC)cc(OC)c2F)Cc2cnc3[nH]c(CN4CCOCC4)cc3c21 [pemigatinib]	0.324
CC(C)[C@H]1C(=O)N[C@@H](CCCNC(=N)N)C(=O)NCC(=O)N[C@@H](CC(=O)O)C(=O)N[C@H](Cc2ccccc2)C(=O)N1C [Cilengitide] + CCN1C(=O)N(c2c(F)c(OC)cc(OC)c2F)Cc2cnc3[nH]c(CN4CCOCC4)cc3c21 [pemigatinib]	0.933
COc1cc(OC)c2c(=O)[nH]c(-c3cc(C)c(OCCO)c(C)c3)nc2c1 + CCN1C(=O)N(c2c(F)c(OC)cc(OC)c2F)Cc2cnc3[nH]c(CN4CCOCC4)cc3c21 [pemigatinib]	1.06
CN(C)Cc1c(C(=O)NCCOc2ccc(C(=O)NO)cc2)oc2ccccc12 + CCN1C(=O)N(c2c(F)c(OC)cc(OC)c2F)Cc2cnc3[nH]c(CN4CCOCC4)cc3c21 [pemigatinib]	0.96
O=C1CN2Cc3c(ccc(Cl)c3Cl)N=C2N1 [Anagrelide HCl] + CCN1C(=O)N(c2c(F)c(OC)cc(OC)c2F)Cc2cnc3[nH]c(CN4CCOCC4)cc3c21 [pemigatinib]	0.852
Nc1nc(Cl)nc2c1ncn2[C@@H]1O[C@H](CO)[C@@H](O)[C@@H]1F [Clofarabine] + CCN1C(=O)N(c2c(F)c(OC)cc(OC)c2F)Cc2cnc3[nH]c(CN4CCOCC4)cc3c21 [pemigatinib]	0.236
COc1ccc(-c2cc(=O)c3c(O)cc(O)cc3o2)cc1O [Diosmetin] + CCN1C(=O)N(c2c(F)c(OC)cc(OC)c2F)Cc2cnc3[nH]c(CN4CCOCC4)cc3c21 [pemigatinib]	1.01

Compound	cell viability
CN1CC[C@H](c2c(O)cc(O)c3c(=O)cc(-c4ccccc4Cl)oc23)[C@H](O)C1 [Flavopiridol HCl] + CCN1C(=O)N(c2c(F)c(OC)cc(OC)c2F)Cc2cnc3[nH]c(CN4CCOCC4)cc3c21 [pemigatinib]	0.262
CN1CC[C@H](c2c(O)cc(O)c3c(=O)cc(-c4ccccc4Cl)oc23)[C@H](O)C1 [Flavopiridol (Alvocidib)] + CCN1C(=O)N(c2c(F)c(OC)cc(OC)c2F)Cc2cnc3[nH]c(CN4CCOCC4)cc3c21 [pemigatinib]	0.222
CC(C)CC(=O)Nc1n[nH]c2c1CN(C(=O)C1CCN(C)CC1)C2(C)C + CCN1C(=O)N(c2c(F)c(OC)cc(OC)c2F)Cc2cnc3[nH]c(CN4CCOCC4)cc3c21 [pemigatinib]	0.874
O=C(NCCS(=O)(=O)c1ccc(C(F)(F)F)cn1)c1ccc(Cl)cc1 + CCN1C(=O)N(c2c(F)c(OC)cc(OC)c2F)Cc2cnc3[nH]c(CN4CCOCC4)cc3c21 [pemigatinib]	0.992
CC[C@H]1OC(=O)[C@H](C)[C@@H](O[C@H]2C[C@@](C)(OC)[C@@H](O)[C@H](C)O2)[C@H](C)[C@@H](O[C@@H]2O[C@H](C)C[C@H](N(C)C)[C@H]2O)[C@](C)(O)C[C@@H](C)/C(=N\OCOCCOC)[C@H](C)[C@@H](O)[C@]1(C)O [Roxithromycin] + CCN1C(=O)N(c2c(F)c(OC)cc(OC)c2F)Cc2cnc3[nH]c(CN4CCOCC4)cc3c21 [pemigatinib]	0.941
CC(=O)N1c2ccc(-c3ccc(C(=O)O)cc3)cc2[C@H](Nc2ccc(Cl)cc2)C[C@@H]1C + CCN1C(=O)N(c2c(F)c(OC)cc(OC)c2F)Cc2cnc3[nH]c(CN4CCOCC4)cc3c21 [pemigatinib]	0.581
Nc1nc(F)nc2c1ncn2[C@@H]1O[C@H](CO)[C@@H](O)[C@@H]1O [Fludarabine] + CCN1C(=O)N(c2c(F)c(OC)cc(OC)c2F)Cc2cnc3[nH]c(CN4CCOCC4)cc3c21 [pemigatinib]	1.05
O=c1[nH]c(=O)n(C2CC(O)C(CO)O2)cc1Br (configuration not stated) [Bromodeoxyuridine (BrdU)] + CCN1C(=O)N(c2c(F)c(OC)cc(OC)c2F)Cc2cnc3[nH]c(CN4CCOCC4)cc3c21 [pemigatinib]	0.961
NC(=O)N1c2ccccc2C=Cc2ccccc21 [Carbamazepine] + CCN1C(=O)N(c2c(F)c(OC)cc(OC)c2F)Cc2cnc3[nH]c(CN4CCOCC4)cc3c21 [pemigatinib]	0.996
CC(C)n1nc(-c2cc3cc(O)ccc3[nH]2)c2c(N)ncnc21 + CCN1C(=O)N(c2c(F)c(OC)cc(OC)c2F)Cc2cnc3[nH]c(CN4CCOCC4)cc3c21 [pemigatinib]	0.315
Clc1ccc(C(Cn2ccnc2)OCc2c(Cl)cccc2Cl)c(Cl)c1 (configuration not stated) [Isoconazole nitrate] + CCN1C(=O)N(c2c(F)c(OC)cc(OC)c2F)Cc2cnc3[nH]c(CN4CCOCC4)cc3c21 [pemigatinib]	0.896
CNc1nc(Nc2cnn([C@H]3CCN(C4COC4)C[C@@H]3F)c2Cl)ncc1C(F)(F)F + CCN1C(=O)N(c2c(F)c(OC)cc(OC)c2F)Cc2cnc3[nH]c(CN4CCOCC4)cc3c21 [pemigatinib]	0.957
NC(CO)(CO)CO [Trometamol] + CCN1C(=O)N(c2c(F)c(OC)cc(OC)c2F)Cc2cnc3[nH]c(CN4CCOCC4)cc3c21 [pemigatinib]	1.05
O=c1ncccn1[C@@H]1O[C@H](CO)[C@@H](O)[C@H]1O [Zebularine] + CCN1C(=O)N(c2c(F)c(OC)cc(OC)c2F)Cc2cnc3[nH]c(CN4CCOCC4)cc3c21 [pemigatinib]	0.981
O=C(CCCCCCNC(=O)c1cnc(N(c2ccccc2)c2ccccc2)nc1)NO [Rocilinostat (ACY-1215)] + CCN1C(=O)N(c2c(F)c(OC)cc(OC)c2F)Cc2cnc3[nH]c(CN4CCOCC4)cc3c21 [pemigatinib]	0.903
C[C@@H](N)[C@H]1CC[C@H](C(=O)Nc2ccncc2)CC1 + CCN1C(=O)N(c2c(F)c(OC)cc(OC)c2F)Cc2cnc3[nH]c(CN4CCOCC4)cc3c21 [pemigatinib]	1.05
O=c1cc(-c2ccc(O)cc2)oc2cc(O)cc(O)c12 [Apigenin] + CCN1C(=O)N(c2c(F)c(OC)cc(OC)c2F)Cc2cnc3[nH]c(CN4CCOCC4)cc3c21 [pemigatinib]	1
CO[C@H]1/C=C/O[C@@]2(C)Oc3c(C)c(O)c4c(c3C2=O)C2=NC3(CCN(CC(C)C)CC3)NC2=C(NC(=O)/C(C)=C\C=C\[C@H](C)[C@H](O)[C@@H](C)[C@@H](O)[C@@H](C)[C@H](OC(C)=O)[C@@H]1C)C4=O [Rifabutin] + CCN1C(=O)N(c2c(F)c(OC)cc(OC)c2F)Cc2cnc3[nH]c(CN4CCOCC4)cc3c21 [pemigatinib]	0.969
